Laboratory results taken from paper PMC11893792.
Like-named read-outs stand apart in the source and are kept apart here. No constants are given. Whether binding was seen depends on the method and setting. In cells and extracts the contact can be indirect. Some entries that bind do so weakly or less than the wild type. For part of these data: Tags and fused reporters may be left off the sequences shown.

By UniProt entry, the sequences of proteins in these tests, tags left out. Where a name states a change or a piece, a line headed by the entry shows the natural chain unless it says otherwise. Chains listed by the source or under a name are the forms on record and can include a tag or linker.
UniProt Q9Z0W5: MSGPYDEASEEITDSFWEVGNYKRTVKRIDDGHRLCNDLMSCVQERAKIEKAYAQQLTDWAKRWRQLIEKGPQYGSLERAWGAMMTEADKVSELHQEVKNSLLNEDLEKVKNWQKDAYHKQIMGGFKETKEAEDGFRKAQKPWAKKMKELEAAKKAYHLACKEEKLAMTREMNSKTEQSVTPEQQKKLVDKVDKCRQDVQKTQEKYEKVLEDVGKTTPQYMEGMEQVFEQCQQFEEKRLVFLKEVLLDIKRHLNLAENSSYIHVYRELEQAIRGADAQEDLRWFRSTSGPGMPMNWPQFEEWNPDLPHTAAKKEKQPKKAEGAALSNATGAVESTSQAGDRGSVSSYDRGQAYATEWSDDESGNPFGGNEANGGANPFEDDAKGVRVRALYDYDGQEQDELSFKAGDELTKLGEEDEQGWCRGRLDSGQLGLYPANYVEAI
UniProt Q14B46: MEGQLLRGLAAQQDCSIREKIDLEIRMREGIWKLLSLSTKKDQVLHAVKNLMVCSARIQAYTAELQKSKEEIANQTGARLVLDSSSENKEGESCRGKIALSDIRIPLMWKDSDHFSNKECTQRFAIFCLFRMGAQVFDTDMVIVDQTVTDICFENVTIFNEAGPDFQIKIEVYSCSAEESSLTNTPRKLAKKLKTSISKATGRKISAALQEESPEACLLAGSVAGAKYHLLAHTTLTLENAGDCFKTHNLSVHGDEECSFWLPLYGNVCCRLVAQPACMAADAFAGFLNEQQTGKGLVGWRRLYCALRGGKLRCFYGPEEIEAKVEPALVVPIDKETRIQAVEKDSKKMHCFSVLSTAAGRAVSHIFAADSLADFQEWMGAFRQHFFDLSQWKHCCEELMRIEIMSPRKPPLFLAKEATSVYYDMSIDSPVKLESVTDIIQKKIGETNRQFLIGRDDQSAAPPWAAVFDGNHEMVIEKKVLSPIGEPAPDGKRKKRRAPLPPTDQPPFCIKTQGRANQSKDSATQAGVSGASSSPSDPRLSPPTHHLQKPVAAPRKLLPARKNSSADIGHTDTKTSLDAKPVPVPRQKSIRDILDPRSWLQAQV
rhotekin2^∆KRAP (untagged full-length rhotekin2 lacking amino acids 492-503) (Q14B46-1, form named): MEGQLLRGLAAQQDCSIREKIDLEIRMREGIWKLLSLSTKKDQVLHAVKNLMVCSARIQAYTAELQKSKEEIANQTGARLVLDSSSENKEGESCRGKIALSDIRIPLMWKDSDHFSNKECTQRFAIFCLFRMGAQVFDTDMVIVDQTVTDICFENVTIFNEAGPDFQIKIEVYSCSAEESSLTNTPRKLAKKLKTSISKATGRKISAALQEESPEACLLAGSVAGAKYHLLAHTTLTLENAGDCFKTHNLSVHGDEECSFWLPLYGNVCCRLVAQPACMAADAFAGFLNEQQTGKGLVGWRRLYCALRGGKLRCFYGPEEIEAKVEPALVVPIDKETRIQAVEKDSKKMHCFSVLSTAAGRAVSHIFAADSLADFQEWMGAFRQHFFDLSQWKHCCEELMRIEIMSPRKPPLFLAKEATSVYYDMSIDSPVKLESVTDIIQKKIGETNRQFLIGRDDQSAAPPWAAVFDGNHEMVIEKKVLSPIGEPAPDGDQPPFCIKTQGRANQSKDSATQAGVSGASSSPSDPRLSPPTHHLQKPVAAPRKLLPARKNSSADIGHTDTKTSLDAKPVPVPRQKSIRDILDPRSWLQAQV
UniProt O35303: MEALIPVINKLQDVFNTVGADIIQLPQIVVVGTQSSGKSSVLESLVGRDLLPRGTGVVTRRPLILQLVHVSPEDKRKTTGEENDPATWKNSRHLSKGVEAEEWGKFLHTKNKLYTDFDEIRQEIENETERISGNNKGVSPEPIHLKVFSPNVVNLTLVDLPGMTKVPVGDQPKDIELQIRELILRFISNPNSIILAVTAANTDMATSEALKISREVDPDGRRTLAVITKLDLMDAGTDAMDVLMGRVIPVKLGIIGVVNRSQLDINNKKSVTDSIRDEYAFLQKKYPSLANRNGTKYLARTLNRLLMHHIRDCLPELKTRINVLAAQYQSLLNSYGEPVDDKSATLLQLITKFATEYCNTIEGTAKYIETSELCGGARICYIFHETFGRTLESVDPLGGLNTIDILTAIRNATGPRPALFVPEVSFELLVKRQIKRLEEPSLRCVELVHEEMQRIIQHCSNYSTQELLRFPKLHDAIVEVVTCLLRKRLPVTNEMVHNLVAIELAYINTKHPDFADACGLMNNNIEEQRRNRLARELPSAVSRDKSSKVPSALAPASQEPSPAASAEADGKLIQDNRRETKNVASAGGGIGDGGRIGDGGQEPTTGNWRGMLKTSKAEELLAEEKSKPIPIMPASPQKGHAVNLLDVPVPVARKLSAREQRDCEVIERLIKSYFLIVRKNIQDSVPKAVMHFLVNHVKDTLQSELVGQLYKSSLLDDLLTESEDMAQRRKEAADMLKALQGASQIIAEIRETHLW
UniProt Q61644: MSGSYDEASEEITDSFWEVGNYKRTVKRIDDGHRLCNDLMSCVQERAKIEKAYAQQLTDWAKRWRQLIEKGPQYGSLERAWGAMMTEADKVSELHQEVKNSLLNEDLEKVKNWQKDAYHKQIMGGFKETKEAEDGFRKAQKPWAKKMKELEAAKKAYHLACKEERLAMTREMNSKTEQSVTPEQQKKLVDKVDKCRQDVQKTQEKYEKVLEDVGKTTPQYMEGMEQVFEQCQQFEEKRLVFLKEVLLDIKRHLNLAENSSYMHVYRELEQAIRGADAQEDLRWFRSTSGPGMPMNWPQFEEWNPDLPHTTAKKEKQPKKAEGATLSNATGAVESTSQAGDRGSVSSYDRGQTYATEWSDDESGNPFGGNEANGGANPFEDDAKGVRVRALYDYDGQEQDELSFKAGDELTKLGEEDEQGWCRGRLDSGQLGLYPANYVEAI

B1: myc-tagged dynamin1 (protein, UniProt P21575 1-864)
chain: MGNRGMEDLIPLVNRLQDAFSAIGQNADLDLPQIAVVGGQSAGKSSVLENFVGRDFLPRGSGIVTRRPLVLQLVNSTTEYAEFLHCKGKKFTDFEEVRLEIEAETDRVTGTNKGISPVPINLRVYSPHVLNLTLVDLPGMTKVPVGDQPPDIEFQIRDMLMQFVTKENCLILAVSPANSDLANSDALKIAKEVDPQGQRTIGVITKLDLMDEGTDARDVLENKLLPLRRGYIGVVNRSQKDIDGKKDITAALAAERKFFLSHPSYRHLADRMGTPYLQKVLNQQLTNHIRDTLPGLRNKLQSQLLSIEKEVDEYKNFRPDDPARKTKALLQMVQQFAVDFEKRIEGSGDQIDTYELSGGARINRIFHERFPFELVKMEFDEKELRREISYAIKNIHGIRTGLFTPDLAFEATVKKQVQKLKEPSIKCVDMVVSELTSTIRKCSEKLQQYPRLREEMERIVTTHIREREGRTKEQVMLLIDIELAYMNTNHEDFIGFANAQQRSNQMNKKKTSGNQDEILVIRKGWLTINNIGIMKGGSKEYWFVLTAENLSWYKDDEEKEKKYMLSVDNLKLRDVEKGFMSSKHIFALFNTEQRNVYKDYRQLELACETQEEVDSWKASFLRAGVYPERVGDKEKASETEENGSDSFMHSMDPQLERQVETIRNLVDSYMAIVNKTVRDLMPKTIMHLMINNTKEFIFSELLANLYSCGDQNTLMEESAEQAQRRDEMLRMYHALKEALSIIGDINTTTVSTPMPPPVDDSWLQVQSVPAGRRSPTSSPTPQRRAPAVPPARPGSRGPAPGPPPAGSALGGAPPVPSRPGASPDPFGPPPQVPSRPNRAPPGVPSRSGQASPSRPESPRPPFDL
B2: myc-tagged dynamin2 (protein, UniProt P39052 1-870)
chain: MGNRGMEELIPLVNKLQDAFSSIGQSCHLDLPQIAVVGGQSAGKSSVLENFVGRDFLPRGSGIVTRRPLILQLIFSKTEYAEFLHCKSKKFTDFDEVRQEIEAETDRVTGTNKGISPVPINLRVYSPHVLNLTLIDLPGITKVPVGDQPPDIEYQIKDMILQFISRESSLILAVTPANMDLANSDALKLAKEVDPQGLRTIGVITKLDLMDEGTDARDVLENKLLPLRRGYIGVVNRSQKDIEGRKDIRAALAAERKFFLSHPAYRHMADRMGTPHLQKTLNQQLTNHIRESLPTLRSKLQSQLLSLEKEVEEYKNFRPDDPTRKTKALLQMVQQFGVDFEKRIEGSGDQVDTLELSGGARINRIFHERFPFELVKMEFDEKDLRREISYAIKNIHGVRTGLFTPDLAFEAIVKKQVVKLKEPCLKCVDLVIQELISTVRQCTSKLSSYPRLREETERIVTTYIREREGRTKDQILLLIDIEQSYINTNHEDFIGFANAQQRSTQLNKKRAIPNQGEILVIRRGWLTINNISLMKGGSKEYWFVLTAESLSWYKDEEEKEKKYMLPLDNLKIRDVEKGFMSNKHVFAIFNTEQRNVYKDLRQIELACDSQEDVDSWKASFLRAGVYPEKDQAENEDGAQENTFSMDPQLERQVETIRNLVDSYVAIINKSIRDLMPKTIMHLMINNTKAFIHHELLAYLYSSADQSSLMEESAEQAQRRDDMLRMYHALKEALNIIGDISTSTVSTPVPPPVDDTWLQNTSSHSPTPQRRPVSSVHPPGRPPAVRGPTPGPPLIPMPVGATSSFSAPPIPSRPGPQNVFANNDPFSAPPQIPSRPARIPPGIPPGVPSRRAPAAPSRPTIIRPAEPSLLD

Experiments:
[1] = molecular target: GST-syndapin I (UniProt Q9Z0W5); assay: pull-down; GST fusion proteins purified from E. coli, coupled to a glutathione-matrix, incubated with lysates of HEK293 cells overexpressing the partner; eluted with 20 mM glutathione; immunoblotting; only the target purified
[2] = molecular target: endogenous rhotekin2 from brain lysates (Fig. 3h) (mouse (endogenous in brain, by the methods; the results say rat)) (UniProt Q14B46); assay: co-IP; endogenous proteins; protein A/G agarose coated with affinity-purified guinea pig anti-rhotekin2 antibodies or non-immune guinea pig IgG, 2 h at 4 °C with brain lysate in IP buffer
[3] = molecular target: GST-syndapin I (UniProt Q9Z0W5); assay: pull-down; GST fusion proteins purified from E. coli, coupled to a glutathione-matrix, incubated with lysates of HEK293 cells overexpressing the partner; eluted with 20 mM glutathione; immunoblotting; only the target purified; remark: listed apart in the source

Molecule	binding [1]	binding [3]	further results
(untagged) full-length rhotekin2 (RTKN2 isoform 1) (from UniProt Q14B46-1 1-604)	binds	–	–
Xpress-tag dynamin-related protein 1 (Xpress-Drp1) (from UniProt O35303 1-755)	no binding	–	–
endogenous syndapin I from brain lysates (Fig. 3h) (from UniProt Q61644 1-441)	–	–	binding [2]: binds
rhotekin2^∆KRAP (untagged full-length rhotekin2 lacking amino acids 492-503) (from UniProt Q14B46-1 1-604)	no binding	–	–
B1	–	binds	–
B2	–	binds	–
